Assay results reported in PubChem BioAssay AID504832 (National Center for Advancing Translational Sciences (NCATS), 2011).
Among all 310,000 compounds or so, about 18,000 (5.8%) were called active. Inconclusive results, whose numbers are uncertain, are shown with a selection of clear calls. The call rests on the fitted dose curve; in most records, active means well fitted inhibition curve with a large enough effect; inconclusive means small, poorly fitted or top-dose-only effect, or another doubt; inactive means no such curve, though single readings can be large or run the other way. Potencies of inconclusive entries are left out as doubtful fits.

Assay: Primary qHTS for delayed death inhibitors of the malarial parasite plastid, 48 hour incubation
Settings: P. falciparum luciferase growth in erythrocytes; series mostly up to 28.7 µM
Procedure, shortened: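 Growth was read as firefly luciferase luminescence after a 48 h, 37 C, 5% CO2 exposure of compounds to reporter-bearing P. falciparum cultures (0.1% parasitemia, 2% hematocrit final) in Albumax-supplemented RPMI 1640.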
Potency means the concentration at half of the fitted maximal effect; tags describe the fitted curve by direction and shape.

SMILES | Potency
CCN(CC(=O)Nc1ccc(NC(C)=O)cc1)C(=O)/C=C/c1ccc(S(=O)(=O)N2CCCCCC2)cc1 | active: 3.29 µM
N#Cc1sc2nc(-c3cccs3)cc(-c3ccc(Cl)cc3)c2c1N | inconclusive [inhibitor, single point]
CCc1cccc(OCC(=O)Nc2cc(S(=O)(=O)N3CCOCC3)ccc2N2CCCC2)c1 | inconclusive [inhibitor, partial curve]
CN(C)N=Nc1nc2c(c(=O)n(C)c(=O)n2C)n1CC1CO1 (stereo not drawn) | inactive
COc1cc([N+](=O)[O-])ccc1NC(=O)Nc1cccnc1 | inconclusive [inhibitor, single point]
CC(C)[C@@]1(c2ccc(Cl)cc2)ON(c2ccccc2C(F)(F)F)C1=O | active: 2.08 µM
Cc1ccc(NC(=O)CCCCCN2C(=O)[C@@H]3Cc4ccccc4CN3C2=O)c(Cl)c1 | inconclusive [inhibitor, single point]
CCOC(=O)NCc1ccc2c(c1)cc(C)n2C | inactive
Cc1ccc(N(CC(=O)NC(C)(C)C)C(=O)CS(=O)CC(=O)Nc2ccc3c(c2)OCO3)cc1 (stereo not drawn) | inactive
CC(=O)Nc1ccc(NC(=O)C(C)Oc2ccccc2C(=O)NCc2ccccc2)cc1 (stereo not drawn) | inconclusive [inhibitor, single point]
CN(CC(=O)Nc1ccccc1Br)C(=O)c1cc(S(=O)(=O)N(C)C)ccc1N1CCCC1 | inconclusive [inhibitor, partial curve, poor fit]
C[C@]12CC[C@H]3C(=CCc4cc(O)ccc43)[C@@H]1CCC2=O | inconclusive [inhibitor, single point]
Cc1cc(Br)cc(C)c1NC(=O)c1ccccc1[N+](=O)[O-] | inconclusive [inhibitor, single point]
CC1(C)COC(/C=C/c2ccc([N+](=O)[O-])cc2)=N1 | inconclusive [inhibitor, single point]
COc1c(C)cc(C(=O)C2CCCN(Cc3cnc(N4CCOCC4)s3)C2)cc1C (stereo not drawn) | inconclusive [inhibitor, single point]
CCOC(=O)Cn1c(CN(Cc2ccccc2)Cc2ccccc2)nc2c1c(=O)n(C)c(=O)n2C | active: 5.86 µM
CCOC(=O)c1oc2c(CN3CCN(C)CC3)c(O)ccc2c(=O)c1-c1ccc(Br)cc1 | inconclusive [inhibitor, single point]
O=C(Nc1ccncc1)c1ccc2ncsc2c1 | inconclusive [inhibitor, single point]
C=CCOc1c(Br)cc(C2NC(=O)NC(C)=C2C(C)=O)cc1OCC (stereo not drawn) | inconclusive [inhibitor, partial curve, poor fit]
COc1ccc(-n2nc3c(c2NC(=O)CBr)CSC3)cc1 | inactive
C=CCCN(Cc1ccccc1)S(=O)(=O)c1cc(Br)ccc1Br | active: 13.1 µM
COCCNC(=S)N(c1ccccc1)C(C)C | inconclusive [inhibitor, partial curve, poor fit]
COc1ccccc1N(C(=O)c1snc(C(N)=O)c1N)C(C(=O)NC1CCCCC1)c1cccc(OC)c1OC (stereo not drawn) | active: 8.28 µM

SMILES | Potency
CCN(CC)c1ccc(C(=O)N2CCN(Cc3ccccc3)CC2)cc1 | inconclusive [inhibitor, single point]
COc1cc2[nH]c(=O)c(C(=O)NCc3ccc(F)cc3)c(O)c2cc1OC | inactive
O=C(c1ccc(Cl)c(Cl)c1)N1CCC(=O)N(C(COCc2ccccc2)Cc2ccccc2)CC1 (stereo not drawn) | inconclusive [inhibitor, single point]
COc1c(C)cc(C(=O)C2CCCN(Cc3ccc(Oc4ncccn4)cc3)C2)cc1C (stereo not drawn) | inconclusive [inhibitor, single point]
CCN1C(=O)C(=O)N(CC(=O)NC(C)CCc2ccccc2)C1=O (stereo not drawn) | inactive
NC(=O)C1CCN(c2nc(-c3ccccc3Cl)cs2)CC1 | inconclusive [inhibitor, single point]
CC(C)COCC1CC2(CC(C)(c3csc(N)n3)OC2=O)C(=O)O1 (stereo not drawn) | inactive
CC1=C([N+](=O)[O-])C(c2ccccc2)NC(=O)N1 (stereo not drawn) | inactive
COC(=O)CNC(c1ccccc1)c1cc(Br)ccc1NC(=O)OCc1ccccc1 (stereo not drawn) | inconclusive [inhibitor, single point]
CC1CCN(C(=O)CN2C(=O)C(=O)N(C)C2=O)c2ccccc2S1 (stereo not drawn) | inactive
C/C(=N\NC(=O)COc1cccc(C)c1)c1ccc2ccccc2c1O | inconclusive [inhibitor, partial curve]
COc1ccc(CNCCC(c2ccc(F)cc2)c2ccc(OC(C)C)cc2)cc1OC (stereo not drawn) | active: 13.1 µM
COc1ccccc1CNC(=O)CCc1c(C)nc2cc(-c3ccccc3OC)nn2c1C | inconclusive [inhibitor, single point]
O=C(NS(=O)(=O)c1ccccc1)c1ccccc1 | inactive
NNC(=O)COc1ccc(-c2n[nH]c(C(F)(F)F)c2-c2ccc(Br)cc2)c(O)c1 | active: 9.28 µM
CS(=O)(=O)c1ccc2nc(NC(=O)Nc3cccc(Cl)c3)sc2c1 | inconclusive [inhibitor, partial curve, poor fit]
COCCCNC(=S)N1CCC(NC(=O)c2ccco2)CC1 | inactive
CCOC(=O)C1(Cc2ccc(Cl)cc2)CCN(C(C)Cc2ccc(O)c(OC)c2)CC1 (stereo not drawn) | inconclusive [inhibitor, partial curve, poor fit]
COc1ccc(NC(=O)CN(C)C(=O)/C=C/c2ccc(S(=O)(=O)N3CCCCCC3)cc2)cc1 | active: 11.7 µM
Cc1cc(C)nc(-n2nc(C)c3c(C(F)(F)F)cc(=O)[nH]c32)n1 | inactive
COc1cccc(C2=NOC(C(=O)Nc3cccc(C(C)=O)c3)C2)c1 (stereo not drawn) | inactive
Cn1c(=O)oc2cc(S(=O)(=O)N3CCOCC3)ccc21 | inconclusive [inhibitor, single point]
CC(Oc1ccc(Cl)cc1)c1ccnn1S(=O)(=O)c1ccc(Cl)cc1 (stereo not drawn) | inconclusive [inhibitor, single point]

SMILES | Potency
C[C@@H](C(=O)Nc1cccc(S(=O)(=O)N2CCOCC2)c1)N1C(=O)C2CC=CCC2C1=O (stereo partly drawn) | inactive
Cc1cc(C)c(CN2CCC(n3nccc3NC(=O)CCOc3ccccc3)CC2)cc1C | inconclusive [inhibitor, single point]
COc1ccc(NC(=O)c2sc3nc(N4CCCC4)c4c(c3c2N)CC(C)(C)OC4)c(OC)c1 | inconclusive [inhibitor, single point]
COc1ccccc1N1CCN(C(c2ccc(C)cc2)c2nnnn2C(C)C)CC1 (stereo not drawn) | inconclusive [inhibitor, partial curve, poor fit]
OC(c1cccs1)(c1cccs1)C1C[N+]2(CF)CCC1CC2 (stereo not drawn) | active: 10.4 µM
COc1cc2c(cc1OC)C(COc1ccccc1OC)N(C(=O)c1ccco1)CC2 (stereo not drawn) | inconclusive [inhibitor, partial curve, poor fit]
COc1cc(/C=N/Nc2nc3c(c(=O)n(C)c(=O)n3C)n2Cc2ccccc2)ccc1OC(=O)c1ccco1 | active: 10.4 µM
COc1ccc(-c2nc3ccccc3c(=O)n2CCOc2ccc(C)cc2C)cc1 | inconclusive [inhibitor, single point]
COc1ccc(NC(=S)NCCCN2CCCC2)cc1Cl | inactive
COc1ccc2cc(C3(C)NC(=O)N(CC(=O)Nc4c(C)n(C)n(-c5ccccc5)c4=O)C3=O)ccc2c1 (stereo not drawn) | inconclusive [inhibitor, partial curve, poor fit]
Cc1ccc(CCNC(=O)c2cc(-c3ccncc3)nc3ccccc23)cc1 | inconclusive [inhibitor, partial curve]
CN(CC(=O)Nc1ccc(F)c(F)c1F)C(=O)CCCc1nc2ccccc2c(=O)[nH]1 | inconclusive [inhibitor, single point]
CCc1ccc(NC(=O)c2cc(-c3cccs3)on2)cc1 | inactive
CNC(=O)[C@H]1O[C@@H](n2cnc3c(NCc4cccc(I)c4)ncnc32)[C@H](O)[C@@H]1O | inconclusive [inhibitor, partial curve, poor fit]
COc1cccc(CN(C)C(=O)c2ccc(OCC(=O)Nc3cccc(C(F)(F)F)c3)c(OC)c2)c1 | inconclusive [inhibitor, single point]
O=C(Cc1cccs1)Nc1nc2ccccc2s1 | inactive
CCOc1ccc(NC(=O)C2CCN(S(=O)(=O)c3ccc4c(c3)N(C(C)=O)CCO4)CC2)cc1 | inconclusive [inhibitor, single point]
CCC(C)N(C(=O)CSc1nnnn1-c1ccccc1OC)C1CCS(=O)(=O)C1 (stereo not drawn) | inconclusive [inhibitor, partial curve]
COc1ccccc1N1CCN(C(=O)c2ccc(COc3cccc4c3OC(C)(C)C4)cc2)CC1 | active: 10.4 µM
O=C(/C=C/c1ccc(Cl)cc1)N1CCN(c2ccc([N+](=O)[O-])c(N3CCOCC3)c2)CC1 | inconclusive [inhibitor, partial curve]
Cc1ccc(S(=O)(=O)N(C)C)cc1NC(=O)C(C)N(C)Cc1sccc1C (stereo not drawn) | inconclusive [inhibitor, partial curve]
CCNC(=O)Cn1c(=O)c2c(ncn2Cc2ccccc2)n(Cc2ccccc2)c1=O | inconclusive [inhibitor, full curve]
